Source: US20240228584A1 (FBD BIOLOGICS, published 2024)

T1: human TGFβ2 (human, UniProt P61812 303-414)
T1 sequence (looked up): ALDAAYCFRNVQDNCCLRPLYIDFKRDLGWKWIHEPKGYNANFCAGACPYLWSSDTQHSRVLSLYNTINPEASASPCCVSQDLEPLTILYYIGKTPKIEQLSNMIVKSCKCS


Tests used:
human TGFβ2 = molecular target: T1, human TGFβ2; assay: ELISA, plate coated with 0.5 ug/ml human TGFβ2, 1 h incubation, OD450
Method: (§1) A 96-well EIA microplate was coated with 0.5 ug/ml human TGFβ (TGFβ1, TGFβ2, or TGFβ3) overnight at 4° C. […] The unbound proteins were removed by washing the wells with 1×PBST (1×PBS containing 0.05% Tween 20) three times. A HRP-conjugated secondary antibody (1:5000) was added to the wells at room temperature (RT) for 1 hour. After the incubation, excess secondary antibodies were removed by washing the wells with 1×PBST three times. Finally, 3,3′,5,5′-Tetramethylbenzidine (TMB) was added for color development. The reaction was stopped and HRP activity was measured using a spectrophotometer at 450 nm.

human TGFβ1 [1] = molecular target: T2, human TGFβ1 (human, UniProt P01137 in part); assay: ELISA (on rate), plate coated with 0.5 ug/ml human TGFβ1, 5 min incubation, OD450
Method: as §1, with “For on-rate binding ability, a 96-well” for “A 96-well”, “0.5 μg/ml” for “0.5 ug/ml”, “TGFβ (TGFβ1)” for “TGFβ (TGFβ1, TGFβ2, or TGFβ3)”, “containing 0.1%” for “containing 0.05%”, “at RT” for “at room temperature (RT)”

human TGFβ1 [2] = molecular target: T2, human TGFβ1; assay: ELISA (off rate), plate coated with 0.5 ug/ml human TGFβ1, 1 h incubation, then 2 h wash on a shaker, OD450
T2 sequence (P01137 279-390 limits assumed): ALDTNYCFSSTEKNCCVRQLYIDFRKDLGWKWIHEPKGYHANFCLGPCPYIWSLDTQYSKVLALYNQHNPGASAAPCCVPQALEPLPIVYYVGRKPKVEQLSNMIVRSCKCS
Method: A HRP-conjugated secondary antibody (1:5000) was added to the wells at RT for 1 hour. After the incubation, excess secondary antibodies were removed by washing the wells with 1×PBST three times. Finally, 3,3′,5,5′-Tetramethylbenzidine (TMB) was added for color development. The reaction was stopped and HRP activity was measured using a spectrophotometer at 450 nm.

Binder	binding result (human TGFβ2)	EC50 (human TGFβ1 [1]) [nM]	EC50 (read off the curve) (human TGFβ1 [2]) [nM]
G4_TGFβRII_mt1 (Fc fusion) [letters of human IgG4 Fc with S228P (EU numbers) omitted]AGGGGSGGGGSGGGGSGGGGSGIPPHVQKSVNNDMIVTDNNGAVKFPQLCKFCDVRFSTCDNQKSCMSNCEITSICEKPQEVCVAVWRKNDENITLETVCHDPKLPYHDFILEDAASPKCIMKEKKKPGETFFMCSCSSDECNDNIIFSEEYNTSNPD	no binding (tested: 300 nM)	6.3	~3
G4_TGFβRII_mt2 (Fc fusion) [letters of human IgG4 Fc with S228P (EU numbers) omitted]AGGGGSGGGGSGGGGSGGGGSGIPPHVQKSVNNDMIVTDNNGAVKFPQLCKFCDVRFSTCDNQKSCMSNCQITSICEKPQEVCVAVWRKNDENITLETVCHDPKLPYHDFILEDAASPKCIMKEKKKPGETFFMCSCSSDECNDNIIFSEEYNTSNPD	no binding (tested: 300 nM)	15.2	~6
G4_TGFβRII_mt3 (Fc fusion) [letters of human IgG4 Fc with S228P (EU numbers) omitted]AGGGGSGGGGSGGGGSGGGGSGIPPHVQKSVNNDMIVTDNNGAVKFPQLCKFCDVRFSTCDNQKSCMSNCSITSICEKPQEVCVAVWRKNDENITLETVCHDPKLPYHDFILEDAASPKCIMKEKKKPGETFFMCSCSSEECNDNIIFSEEYNTSNPD	no binding (tested: 300 nM)	10.8	~4
G4_TGFβRII_mt4 (Fc fusion, also called m4) [letters of human IgG4 Fc with S228P (EU numbers) omitted]AGGGGSGGGGSGGGGSGGGGSGIPPHVQKSVNNDMIVTDNNGAVKFPQLCKFCDVRFSTCDNQKSCMSNCEITSICEKPQEVCVAVWRKNDENITLETVCHDPKLPYHDFILEDAASPKCIMKEKKKPGETFFMCSCSSEECNDNIIFSEEYNTSNPD	–	6.23	~2
